Assay results as given in the RNAGym collection of RNA variant scans (doi:10.7554/elife.90254).
The source gives no read counts; variants with many changes may rest on few reads.

B1: LINE1-mini (parent)
chain: GGCAGAGCUCAACACAGCGUGGCAAAGUGGCUGUGGCUAGACUGCC

Variants of: B1
Test: self-cleavage, relative activity (ratio to wild type); higher = more cleavage; in vitro, sequencing; the parent is a self-cleaving ribozyme

| Variant | self-cleavage |
| --- | --- |
| UGCAUAUCUCAACACAGCGUGGCAAAGUAGCUGUGGCUAGACUGCC | 0.11 |
| UGCAGAGCUCAACACACCGUGGCAAAGUGGCUGUGUCUAGACUGCU | 0.03 |
| UGCAGAGCUCAACACAGCGUGGCAAAGAGGAUGUGGCUAGACUGCC | 0.09 |
| UGCAGAGCUCAACACAGCGAGGCUAAGUGGCUUUGCCUAGACUGCC | 0 |
| UGCAGAGCUCAACACAGCGUGGCAAAGUGUCUGUGGCAAGACUGCC | 0.26 |
| UGCAGAGCUCAACACAGCGUGGCAAAGUGGCUGUGGCGAAACUGCC | 0.02 |
| UGCAUAGCUCAACACAGCGUGAGAAAGUGCCUGUGGCUAGACUGCC | 0.02 |
| UGCAGAGCUCAACACAGCGUGGCAAAGUGGCUGGGGCUAGAAUGCU | 0.02 |
| UGCAGAGCUCAACACAGCGUGGCAAAGUGGCUGUGUCUAGACUGCU | 0.22 |
| UGCAGAGCGUAAGACAGCGUGGCAAAGUGGCUGUGGCUAGCCUGCC | 0.01 |
| UGCAGAGCUCAACACAGCAUGGCAAAUUGGCUGUGGCUAGACUGCU | 0.26 |
| UGCAGAGCUCAACACAGCGUGGCAAAUUGGCUGUGGAUAGACUGCC | 0.03 |
| UGCAUUGCUCAACACAGCGUGGCAAAGUGGCUGUGGCUAGACUUCC | 0.02 |
| UGCAUAGCUAAUCACAGCGUGGCAAAGUGGCUGUGGCUUUACUGCC | 0 |
| UUCAGAGCUAAACACCGCGUGGCACAGUGGCUGUGGCUAGACUGCC | 0 |
| UGCAGAGCCCAACACAGAGUGGCAAAUUGGCUGUGGCUAGACUACC | 0.01 |
| UGCAGAGCUCAACACAGCGUGGCAAAGAGGGAGUGCCUAGACUGCC | 0.03 |
| UGCAGAGCACAACACAGCGUGGCAAAGUUACUGUGGUUAGACUGCC | 0.08 |
| UGCAGAGCUCAACACAGCCUGGGAAAGCGUCAGUGGCUAGACUGCC | 0.01 |

| Variant | self-cleavage |
| --- | --- |
| UGCAGAGCUCAACACAGCGUGGCAAAGUGCCUGGGGCUAGCCAGCC | 0.01 |
| UGCAGAGCUCAACACAGCGUGGCAAAGUGGCCGUCGCUAGACUGCC | 0.02 |
| GACCGAGCUCAACGCAGCGAGGCAAAGUGGCUAUGGCUAGACUGCC | 0.06 |
| UGCAGAGCUCAACACAGCGUUGCAAGGUUGCUGUGGCUAGACUGCC | 0.86 |
| UGCAGACCUCAACACAGCGUGGCAAAGUGGUUGUGGCUAGACUGCC | 0.04 |
| UGCAGAGCUCAACACAGCGUGGCAAACUGGCUGUGGCGAGAAUGCC | 0.04 |
| UGCAAAGCUCAACACAGCGUGGCAAAGUGGCUGUGGUUAGACUGCC | 0.22 |
| GACCGAGCUAAACAUCGCGUGGCAAAGUGGCUGUGGCUAGACUGCC | 0.05 |
| UUCAGAGCUAAACUCAGCGUGGCAAAGUGGCGGUGGCUAGACUGCG | 0.01 |
| UGCAGAGCUCAACACAGCGUGACAAAGUGGCUGUGGCUAGACUGCU | 0.85 |
| UGCAGAACUCAACACAGCGUGGCAUAAUGGCUGUGGCUAGAAUGCC | 0.04 |
| UGCAGAGCUCAACACAGCGUGGCAAAAUGGCUCUGGCUAGACUGCC | 0 |
| UGCAGAGCAAAACACAGCGCGGAAAAGUGGCCGUGGCUAGACUUCC | 0.01 |
| UGCAGAGCUCAACACAGCGUGGCAAAGUGGCUGGGGCUAGAAUGAC | 0.04 |
| UGCAGAUCUCAACACAGCGCGGCAAAGUGGCUGUGGCUAGACUGCC | 0 |
| UGCAGAGCUCAACACAGCGUGUCAAAGUGGCUGUGGCUACACGGCC | 0.01 |
| UGCAGAGCUCAACACAGCGUGGCAAAGUGGCUGUGGCAAGACUUCC | 0.16 |
| UUCAGAGCUCAUCACAGCGUGGCAAAGUAGCUGUGGCUAGACUGCC | 0.02 |
| UGCAGAGCGCAACACAGCGUGGCAAAAUGGCUGUGGCUAGACUGCC | 0.06 |

| Variant | self-cleavage |
| --- | --- |
| UGCAGAACGCAACACAGCGUGACAAAUUGGCUGUGGCUAGACUGCC | 0.04 |
| UGCAGAGCUCAACACAGCGUUGCAAAGUGGCUGUUGCUAGACGUCC | 0.02 |
| UGCAGACCGAAACACAGCGUGGCAAAGUGGCUAUGGCUAGACUACC | 0 |
| UGCACAGCUAAACACAGCGUGACAAAGUGGCUGUGGCUAGACUGCC | 0.01 |
| UGCAUAACUCAACACAGCGUGGCAAAGUGUCUGUGGCUAGACUGCC | 0.37 |
| UGCAUAGCUCAACACAGCGUGGCAAAGUGGCUGUGGAUAGACUGCC | 0.02 |
| UGCAGAGCUCAACACAGCGUGGCAAAGUGGCAGUGUCUAGACUGCC | 0.07 |
| UUCAGAGCUCAACACAGCGUGGCAAACUGGCUGUGGCCAGAAUGCC | 0 |
| UGCAGAGCUCAACACAGCGUGUCAAAGUGGCUCUGGCUAGACUGCC | 0.01 |
| UGCAGAGCUCAACACAGCGUGGCAAAGUGGCUGAGGCGAGACUGCC | 0.01 |
| UGCAGAGCACAACACAGCGUGGCAAGGUGGCUGUGGCUAGACUGCC | 0.01 |
| UGCAUAGGACAACACAGCGUGGCAAAGUGGCUGUGGCUAUACUGCC | 0.04 |
| GACGGAGCUCAACAAAGCGUGGCAAAGUGGCUGUGACUAGACUGCU | 0.21 |
| UGCAGAACUCAACACAGCGUGGCAAUGAGGCUGUGGCUAGACUGCC | 0.18 |
| GACCGAGCUCAACACAGUGUGGCUAAGUGGCUGUGGCUAGACUGCC | 0.05 |
| UGCAGAGCUCAACACAGCUUGGCAAAGUGGCUGUGGCUAGACUGCG | 0.2 |
| UGCAGAGCUCAACACAGCUUGGCAAAGUGGCUGUGGCUAGACUGCA | 0.35 |
| UGCAAAGCGCAACACAGCGUGGCAAAGCGGCUGUGGCUAGACUGCC | 0.03 |
